Variants at the floor of the assay are shown more often than the library holds them.
B1: TPR 5TU (parent)
chain: GGAUCUUCUCGAUCUAACAAAAAAGACAAAUCUGCCACAAAGCUUGAGAGCAUCUUCGGAUGCAGAGGCGGCAGCCUUCGGUGGCGCGAUAGCGCCAACGUUCUCAACUAUGACACGCAAAACGCGUGCUCCGUUGAAUGGAGUUUAUCAUG

Variants of: B1
Assay: polymerase ribozyme fitness, log enrichment relative to wild type (log ratio); higher = more active; in vitro selection for triplet polymerase activity
Procedure, shortened: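 Only genotypes with ≥10 input reads and ≥1 read per output were kept after Illumina sequencing of input and output libraries. These libraries were PCR-built, transcribed mutants of each subunit of a heterodimeric triplet polymerase ribozyme, each put through one triplicate in vitro selection round with frozen incubation at −7 °C, gel excision of extended constructs, streptavidin-bead capture and RT-PCR. Fitness is a logarithmic ratio of genotype enrichment to wild-type enrichment, from inverse-variance-weighted replicate averages, with the logarithm in base 2.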

| Variant | polymerase ribozyme fitness (log ratio) |
| --- | --- |
| U55G U61A G84U C114U A150U | ≤ -4.2 |
| U55G U82G C85A A97C U104C G136U | -3.65 |
| U55G U127C | -1.36 |
| U55G U134A U139A | ≤ -4.2 |
| U56A A66C C72U G92A C93U C95A C116A | ≤ -4.2 |
| U56A A89U C96G | -1 |
| U56A A91U A121C | ≤ -4.2 |
| U56A A91U C125U C132U G140A U148A | ≤ -4.2 |
| U56A A91U U127C | ≤ -4.2 |
| U56A A97U | -1.47 |
| U56A A107C C108U U130A | ≤ -4.2 |
| U56A C57A G84A | -0.56 |
| U56A C57G A66U G84A A98G C103A C125A | ≤ -4.2 |
| U56A C57G C87A A119G G126A | ≤ -4.2 |
| U56A C57U G70A G92U C103G | ≤ -4.2 |
| U56A C57U U82A G84A G92U A106C G143C | ≤ -4.2 |
| U56A C76A A119U A121C G126U | -1.11 |
| U56A C79A G84A U102A G128U | ≤ -4.2 |
| U56A C79A G92A C95A C96G U148A | ≤ -4.2 |
| U56A C79U C85A | ≤ -4.2 |
| U56A C85A U102G U145A | ≤ -4.2 |
| U56A C85G A115G U148A | ≤ -4.2 |
| U56A C87A A89U C96U G133U | ≤ -4.2 |
| U56A C87A C103G U134G | ≤ -4.2 |

| Variant | polymerase ribozyme fitness (log ratio) |
| --- | --- |
| U56A C87A C105G G128C | ≤ -4.2 |
| U56A C87G G94C U104C G117U A119U U134C | -3.94 |
| U56A C87G U101C A147C | ≤ -4.2 |
| U56A C93A A98U A107G C129U | ≤ -4.2 |
| U56A C95U A98U | -1.6 |
| U56A C95U C96G A110G A119G G152U | -4.13 |
| U56A C96U A138U | -4.06 |
| U56A C125U A142C | -3.74 |
| U56A G58A C76U C123U C125G G143A | 0.457 |
| U56A G58A G88C | -3.84 |
| U56A G58C C93U U127G U145A | -3.83 |
| U56A G58U A73U C76U U78G G88A C95U C105U A122U C132G | ≤ -4.2 |
| U56A G59A C105G A110G A150C | ≤ -4.2 |
| U56A G59C U144G | 2.23 |
| U56A G68C C79U | ≤ -4.2 |
| U56A G70A C85U A97G G133C | ≤ -4.2 |
| U56A G71A C96U U102C C116U C129A U134G | ≤ -4.2 |
| U56A G81C A120C G141A | 0.526 |
| U56A G83C C87U A89C C108U U144C | ≤ -4.2 |
| U56A G84A | -1.06 |
| U56A G84A G143C G152U | ≤ -4.2 |
| U56A G84A U90C C125A | ≤ -4.2 |
| U56A G84A U127G | -3.06 |
| U56A G88A A106U G128A | ≤ -4.2 |

| Variant | polymerase ribozyme fitness (log ratio) |
| --- | --- |
| U56A G88C A142U | ≤ -4.2 |
| U56A G88U U104C G124U | ≤ -4.2 |
| U56A G92U U102A U134C | -1.59 |
| U56A G94U C95A G143U | -3.39 |
| U56A U61A C72G C129U U134G G141C | ≤ -4.2 |
| U56A U61C | -3.45 |
| U56A U61C G83U C116U G140U | ≤ -4.2 |
| U56A U77G C123G | ≤ -4.2 |
| U56A U78A U82C G94C G117C U134G U151C | ≤ -4.2 |
| U56A U78G C93G | ≤ -4.2 |
| U56C C75A G88C C99G | ≤ -4.2 |
| U56C C96U | -0.496 |
| U56C G59U C85A A121U A137U U146G | ≤ -4.2 |
| U56C G65A G84A A91U | ≤ -4.2 |
| U56C G68U A89G C99U U146G | ≤ -4.2 |
| U56C G68U A121G U148A | ≤ -4.2 |
| U56C G74U U90A A91U C108G A119C G124C U151G | ≤ -4.2 |
| U56C G88U G92A C99U G126U | ≤ -4.2 |
| U56C U78G G80A G84C | ≤ -4.2 |
| U56G A60U G84A G117C U127A A147U | ≤ -4.2 |
| U56G C69A C85G C103G A150C | ≤ -4.2 |
| U56G C69A G81C U139A | ≤ -4.2 |
| U56G C76A U77C C93G C105A U109G | ≤ -4.2 |
| U56G C76U A91G A122U C149G | ≤ -4.2 |

| Variant | polymerase ribozyme fitness (log ratio) |
| --- | --- |
| U56G C79U G83A C87A G92U A106G | ≤ -4.2 |
| U56G C85G | -2.54 |
| U56G C85U A91U U135A | ≤ -4.2 |
| U56G C87A C103U C114U C125U | ≤ -4.2 |
| U56G C93U A110U | -3.71 |
| U56G C108A | ≤ -4.2 |
| U56G G59A U61A U148G | ≤ -4.2 |
| U56G G59U C87A A106G A107G C116U G140C | ≤ -4.2 |
| U56G G68U | ≤ -4.2 |
| U56G G68U G81A G84A A91C U135C | ≤ -4.2 |
| U56G G70U C85U U151A | ≤ -4.2 |
| U56G G84A G100U C131A G133A G136C | ≤ -4.2 |
| U56G G84U A97U C99G G133U | ≤ -4.2 |
| U56G U61A C76U C79U C85G G100C C108A | ≤ -4.2 |
| C57A A60G C79G | -3.6 |
| C57A A64C C85A C95U U130A A147U | ≤ -4.2 |
| C57A A66C U135G | ≤ -4.2 |
| C57A A66G G80A C103G U139C U151G | ≤ -4.2 |
| C57A A89C G94U A142G | -3.19 |
| C57A A89G C95U A119U A120U C125U | -1.54 |
| C57A A91G | -2.76 |
| C57A A113C A119U | -1.37 |
| C57A A138C | -3.77 |
| C57A C85G | -1.75 |

| Variant | polymerase ribozyme fitness (log ratio) |
| --- | --- |
| C57A C85U A106U C125G G136U U146G | -3.77 |
| C57A C87A G92U C95A A138C | ≤ -4.2 |
| C57A C95U C149U | -0.536 |
| C57A C96U G124A A150C | -3.99 |
| C57A C114U | -1.45 |
| C57A G62U G92A C103U C129A | ≤ -4.2 |
| C57A G65A G84U A120G | -3.08 |
| C57A G68A G70U G84U C87A G126U | ≤ -4.2 |
| C57A G70U G80A G83C C87U C108A | ≤ -4.2 |
| C57A G71C G88C C108U | ≤ -4.2 |
| C57A G80C C95U C116U | ≤ -4.2 |
| C57A G83C G141A | -0.777 |
| C57A G83U U90A A147C | ≤ -4.2 |
| C57A G84U | -1.29 |
| C57A G84U A89U G92U C118U U151A | ≤ -4.2 |
| C57A G92U C105G | -1.2 |
| C57A U78A U90A U101A G117U | ≤ -4.2 |
| C57A U78G A97G G117A A122G | ≤ -4.2 |
| C57A U82A A138U | ≤ -4.2 |
| C57A U90A A91U A138U | ≤ -4.2 |
| C57A U90G | ≤ -4.2 |
| C57A U102G | -1.73 |
| C57G A60U G68A A98U U111A A119U G140A | ≤ -4.2 |
| C57G A89G C93A | ≤ -4.2 |

| Variant | polymerase ribozyme fitness (log ratio) |
| --- | --- |
| C57G A89U A98U | -1.18 |
| C57G C76A C87G C108U G136U G143C C149U | ≤ -4.2 |
| C57G C85A A97U A110G A113U G117A A138C G140C | ≤ -4.2 |
| C57G C85A A120G G136A U139A | ≤ -4.2 |
| C57G C87U C108A A110U C123A | ≤ -4.2 |
| C57G C95U | -1.18 |
| C57G C116A | 1.35 |
| C57G C123U U145A | -0.237 |
| C57G G58A A60G A137U | -4.15 |
| C57G G58A G86U | -1.7 |
| C57G G58C A137C | -3.85 |
| C57G G58U A137G G143A | -2.87 |
| C57G G59U C85U | -1.11 |
| C57G G59U G62A A66G C116U A122C | ≤ -4.2 |
| C57G G67U G86U A91G | ≤ -4.2 |
| C57G G68A C72G A91U C118A G133C A150G | ≤ -4.2 |
| C57G G84A C103U A110G | -3.52 |
| C57G G84U A89C G112C U139C C149A | ≤ -4.2 |
| C57G G84U U109G G136U | -3.84 |
| C57G G86C | -3.04 |
| C57G G88A C96U U139C A142G | ≤ -4.2 |
| C57G G100U U135G U148A | ≤ -4.2 |
| C57G U90C C93U C99A U134C | ≤ -4.2 |
| C57U A64U C114U | ≤ -4.2 |

| Variant | polymerase ribozyme fitness (log ratio) |
| --- | --- |
| C57U A73C G83U U127C | ≤ -4.2 |
| C57U A73C G94C A107G | ≤ -4.2 |
| C57U A73G G84C C95A C118G | -2.62 |
| C57U A91C U146G | ≤ -4.2 |
| C57U A91G | -2.92 |
| C57U A97G | -0.11 |
| C57U A115U A138C | ≤ -4.2 |
| C57U C63G G71A G86A C118U | ≤ -4.2 |
| C57U C69A G83C U90A C103G A137U | ≤ -4.2 |
| C57U C75U | 0.237 |
| C57U C79G C85G A91G A97C A122C | ≤ -4.2 |
| C57U C85A G133C G136A | -1.86 |
| C57U C85G A142C A150G | ≤ -4.2 |
| C57U C87U C103G | -1.94 |
| C57U C95U | -1.55 |
| C57U C95U A142C U144G | ≤ -4.2 |
| C57U C132A G141U | ≤ -4.2 |
| C57U G58A A60C C76A C85G U90G C108U U134G | ≤ -4.2 |
| C57U G58C A142C | 0.768 |
| C57U G59A G83C G84U C85A U101G G126A A142C | ≤ -4.2 |
| C57U G59C C95G C108U U148A | ≤ -4.2 |
| C57U G65C C85G | ≤ -4.2 |
| C57U G70A G83C U139G | ≤ -4.2 |
